Consider seven substances from publication PMC11014668.

The chains behind the UniProt entries cited, without tags or fusion partners. Where a name states a change or a piece, a line headed by the entry shows the natural chain unless it says otherwise. A line that says so, or that is headed by a name, gives the form on record, which may keep a tag or linker.
UniProt P40337: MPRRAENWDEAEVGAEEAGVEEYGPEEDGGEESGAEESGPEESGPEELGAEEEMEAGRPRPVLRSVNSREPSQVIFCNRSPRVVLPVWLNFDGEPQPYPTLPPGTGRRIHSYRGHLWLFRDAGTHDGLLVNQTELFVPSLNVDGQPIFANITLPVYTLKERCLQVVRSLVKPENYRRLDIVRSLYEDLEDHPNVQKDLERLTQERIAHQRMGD
VHL E3 ligase deficient mutant (VHL^Δ92–121) (P40337, form named): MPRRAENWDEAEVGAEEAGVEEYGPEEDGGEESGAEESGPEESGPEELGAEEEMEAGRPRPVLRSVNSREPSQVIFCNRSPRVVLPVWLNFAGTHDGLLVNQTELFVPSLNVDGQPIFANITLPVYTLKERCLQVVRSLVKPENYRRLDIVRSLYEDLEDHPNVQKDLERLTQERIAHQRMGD
UniProt Q86U44: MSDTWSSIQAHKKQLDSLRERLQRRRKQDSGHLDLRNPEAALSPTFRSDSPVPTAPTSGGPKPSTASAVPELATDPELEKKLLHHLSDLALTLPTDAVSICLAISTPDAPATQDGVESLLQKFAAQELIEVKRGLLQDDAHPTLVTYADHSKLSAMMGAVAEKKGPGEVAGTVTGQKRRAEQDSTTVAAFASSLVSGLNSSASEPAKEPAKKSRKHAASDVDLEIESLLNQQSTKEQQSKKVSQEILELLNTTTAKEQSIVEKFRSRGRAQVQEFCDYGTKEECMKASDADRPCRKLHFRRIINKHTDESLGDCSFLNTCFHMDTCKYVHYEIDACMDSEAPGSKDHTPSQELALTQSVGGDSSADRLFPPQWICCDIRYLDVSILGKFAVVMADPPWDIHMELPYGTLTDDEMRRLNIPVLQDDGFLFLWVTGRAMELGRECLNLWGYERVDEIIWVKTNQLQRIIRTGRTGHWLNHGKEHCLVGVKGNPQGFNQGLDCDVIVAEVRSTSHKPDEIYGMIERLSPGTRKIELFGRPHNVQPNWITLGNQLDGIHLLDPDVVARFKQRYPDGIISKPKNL

Results are given in words; binding and its absence hold for the method and conditions named. In cells and extracts the contact can be indirect. Some results given as binding are weak or reduced against the parent protein; the word gives no strength.

One test concerns the target IVT Flag-VHL (UniProt P40337). Description: pull-down; anti-Flag immunoprecipitation of IVT Flag-VHL with GST-tagged proteins expressed in vitro; EBC buffer, overnight at 4°C, in the presence of RNase.
Test [1] has as its target endogenous VHL (human (endogenous in HKC; cell line of Figure 1F-H not named)) (UniProt P40337). Description: co-IP; endogenous VHL immunoprecipitation from HKC cells.
For test [2] the target is unchanged. Briefly: co-IP; endogenous immunoprecipitation with antibodies to VHL, METTL3 or METTL14; cell line not named; EBC buffer, Protein G beads.
The target in test [3] is VHL, tagged, expressed in 293T cells (Figure 1, A-D) (UniProt P40337). Description: co-IP; anti-Flag or anti-HA immunoprecipitation from lysates of transfected 293T cells (exogenous and semi-endogenous); EBC buffer (0.1 mM EDTA, 50 mM Tris-HCl pH 8.0, 120 mM NaCl, 0.5% NP-40, 10% glycerol), overnight at 4°C.
The target of test [4] is T1, METTL14 (co-IP of Supplemental Figure 1, C and D) (UniProt Q9HCE5).
T1 sequence: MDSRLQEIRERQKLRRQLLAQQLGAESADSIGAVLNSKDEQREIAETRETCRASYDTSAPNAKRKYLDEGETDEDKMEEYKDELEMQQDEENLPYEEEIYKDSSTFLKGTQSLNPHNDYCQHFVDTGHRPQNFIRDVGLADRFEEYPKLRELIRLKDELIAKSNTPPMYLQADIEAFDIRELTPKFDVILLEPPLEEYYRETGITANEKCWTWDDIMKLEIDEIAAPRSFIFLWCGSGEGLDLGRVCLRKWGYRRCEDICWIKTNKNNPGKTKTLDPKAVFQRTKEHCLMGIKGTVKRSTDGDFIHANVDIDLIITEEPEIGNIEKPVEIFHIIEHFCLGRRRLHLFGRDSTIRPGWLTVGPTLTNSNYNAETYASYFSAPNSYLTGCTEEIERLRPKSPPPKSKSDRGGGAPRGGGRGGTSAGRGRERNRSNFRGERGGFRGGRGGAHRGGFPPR
Description: co-IP; co-IP of VHL WT, truncation mutants and VHLΔ92–121 with METTL3 or METTL14 (Supplemental Figure 1, C and D).

Test [5] concerns the target METTL3 (co-IP of Supplemental Figure 1, C and D) (UniProt Q86U44). The description is as above.
The next test deals with GST-VHL (UniProt P40337). Briefly: pull-down; GST pull-down with purified GST or GST-VHL and IVT HA-METTL3; EBC buffer, overnight at 4°C, RNase Cocktail added; only the target purified.
Test [6] deals with T2, endogenous METTL14 (human (endogenous in HKC, 786O, UMRC2)) (UniProt Q9HCE5).
T2 sequence: T1 sequence
Description: co-IP; endogenous immunoprecipitation with antibodies to VHL, METTL3 or METTL14; cell line not named; EBC buffer, Protein G beads.

The target of test [7] is endogenous METTL3 (human (endogenous in 293T, HKC, 786O, UMRC2)) (UniProt Q86U44). The test is described as above.

In the case of METTL3-GST (from UniProt Q86U44 1-580), in the test with IVT Flag-VHL, the binding entry was “binds”.

For “endogenous METTL3 (from UniProt Q86U44 1-580)”, the binding entry in test [1], in test [2] and in test [3] was “binds” in each case.

As for “VHL E3 ligase deficient mutant (VHL^Δ92–121) (from UniProt P40337 1-213)”, the binding entry in test [4] and in test [5] was “no binding” throughout.

As for “in vitro translated (IVT) HA-METTL3 (from UniProt Q86U44 1-580)”, in the test with GST-VHL, the binding result was “binds”.

As to “endogenous VHL (from UniProt P40337 1-213)”, the binding result in test [6] and in [7] was “binds” in each case.

With “METTL3, tagged, expressed in 293T cells (Figure 1, A-D) (from UniProt Q86U44 1-580)”, the binding result in test [3] was “binds”.

In the case of “VHL WT (co-IP of Supplemental Figure 1, C and D) (from UniProt P40337 1-213)”, the binding result in [4] and in [5] was “binds” throughout.
